Assay results published in the supplement of paper PMC11876631.
Substitutions are numbered along the chain they refer to. Numbers in names are those of the source. ± gives the standard deviation of the averaged measurements. Laboratory Escherichia coli strains with one amino-acid change in an essential protein, pooled on minimal glucose agar with carbenicillin or gentamicin at twice the control MIC (plus kanamycin and chloramphenicol for the plasmids), 48 h. Fold change of barcode share against drug-free plates; higher = less susceptible. Active = above 20 in both replicates (the paper's putatively resistant). '<' = one read or none on drug, '>' = one read or none on a drug-free plate. Shares are relative, so most strains fall below 1 when a few take over. Listed are strains with at least 15 reads on both drug-free plates, and hits; most hits rest on fewer reference reads. Replicate rank correlation about 0.5. Edits are read from barcodes.

B1: purD V30W (protein)
chain: MKVLVIGNGGREHALAWKAAQSPLVETVFWAPGNAGTALEPALQNVAIGVTDIPALLDFAQNEKIDLTIVGPEAPLVKGVVDTFRAAGLKIFGPTAGAAQLEGSKAFTKDFLARHKIPTAEYQNFTEVEPALAYLREKGAPIVIKADGLAAGKGVIVAMTLEEAEAAVHDMLAGNAFGDAGHRIVIEEFLDGEEASFIVMVDGEHVLPMATSQDHKRVGDKDTGPNTGGMGAYSPAPVVTDDVHQRTMERIIWPTVKGMAAEGNTYTGFLYAGLMIDKQGNPKVIEFNCRFGDPETQPIMLRMKSDLVELCLAACESKLDEKTSEWDERASLGVVMAAGGYPGDYRTGDVIHGLPLEEVAGGKVFHAGTKLADDEQVVTNGGRVLCVTALGHTVAEAQKRAYALMTDIHWDDCFCRKDIGWRAIEREQN
B2: purD L270Q (protein)
chain: B1 chain with W30V, L270Q
B3: purD V30Q (protein)
chain: B1 chain with W30Q
B4: purD V30D (protein)
chain: B1 chain with W30D
B5: purD V30P (protein)
chain: B1 chain with W30P
B6: purD V308A (protein)
chain: B1 chain with W30V, V308A
B7: purD L270W (protein)
chain: B1 chain with W30V, L270W
B8: purD L270P (protein)
chain: B1 chain with W30V, L270P
B9: purD V308W (protein)
chain: B1 chain with W30V, V308W
B10: purD L270A (protein)
chain: B1 chain with W30V, L270A
B11: purD V308Q (protein)
chain: B1 chain with W30V, V308Q
B12: purD L270D (protein)
chain: B1 chain with W30V, L270D

Biological target: Escherichia coli (laboratory strain)
Assay: barcode share on antibiotic plates over drug-free plates; higher = less susceptible
Method: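 A pool of E. coli strains, each edited to carry one amino-acid change in an essential protein, was grown for 48 h on minimal glucose agar with or without antibiotic; strain barcodes were sequenced; mean of two replicates.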

[1] = antibiotic: carbenicillin, 2× MIC (3.1 µg/mL)
[2] = antibiotic: gentamicin, 2× MIC (MIC 0.45 µg/mL)

Row | Protein | fold change of barcode share [1] | fold change of barcode share [2]
1 | B1 | 1.6718 ± 0.00082 | 
2 | B2 | 104 [active] | 
3 | B3 | 1.09 ± 0.061 | 0.00802 ± 0.0012
4 | B4 | 101 [active] | 
5 | B5 | 76.9 [active] | 
6 | B6 | 0.608 ± 0.13 | 0.0064 ± 0.0047
7 | B7 | 82.8 [active] | 
8 | B8 | 90.2 [active] | 
9 | B9 | 36.5 [active] | 
10 | B10 | 62.2 [active] | 
11 | B11 | 90.9 [active] | 
12 | B12 | > 121 [active] | 
